1 molecule from patent publication US20210162000A1 (INSTITUT DE CARDIOLOGIE DE MONTREAL, published 2021) can be followed below.

The experiment has as its target T1, Glucose-regulated protein 94 (GRP94), endogenous (human, UniProt P14625).
T1 construct: also called gp96; HSP90B1
The experiment in a line: co-IP (IP: V5, IB: GRP94) from transfected HEK293 cells, with GRP94 siRNA as specificity control.

B1: PCSK[…]Y-V5 (enzyme, not shown: small tags and cut ends)
chain: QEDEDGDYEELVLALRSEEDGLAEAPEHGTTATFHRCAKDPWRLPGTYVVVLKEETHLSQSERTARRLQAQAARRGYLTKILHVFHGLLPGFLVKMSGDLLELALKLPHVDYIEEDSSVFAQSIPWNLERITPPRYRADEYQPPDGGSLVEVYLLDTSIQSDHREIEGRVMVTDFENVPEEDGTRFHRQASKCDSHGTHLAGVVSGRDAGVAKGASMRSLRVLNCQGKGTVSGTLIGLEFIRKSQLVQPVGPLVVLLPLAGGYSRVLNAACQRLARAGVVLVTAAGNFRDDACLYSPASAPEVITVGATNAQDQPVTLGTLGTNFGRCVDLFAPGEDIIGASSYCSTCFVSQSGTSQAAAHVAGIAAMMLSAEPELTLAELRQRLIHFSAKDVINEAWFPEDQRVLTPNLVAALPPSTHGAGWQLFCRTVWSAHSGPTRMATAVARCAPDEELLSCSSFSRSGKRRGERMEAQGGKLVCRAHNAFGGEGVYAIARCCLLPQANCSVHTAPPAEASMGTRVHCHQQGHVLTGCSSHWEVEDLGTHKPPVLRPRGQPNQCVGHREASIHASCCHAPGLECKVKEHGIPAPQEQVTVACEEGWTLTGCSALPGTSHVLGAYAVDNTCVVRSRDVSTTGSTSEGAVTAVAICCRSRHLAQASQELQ
notes: Expressed in transfected HEK293 cells; also called PCSK[…]Y mutant
Turning to B1, the binding result is “binds”.
